# Laboratory results taken from the supplement of paper PMC4466236.
# Over roughly 33,000 sequences, “E-score (dimensionless, -0.5 to 0.5)” has its median near -0.058; the highest 2% begin near 0.35. Some of the results follow.
# Tested on: MvaT
# Experiment: PBM 8-mer E-score (mean of HK and ME arrays) (E-score (dimensionless, -0.5 to 0.5)); higher = stronger relative binding preference; most listed sequences are background and not binding sites
# How it was run: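 Full-length P. aeruginosa MvaT, with glutathione S-transferase fused to its N-terminus (cloned into pTH6838 by isothermal assembly), was tested by protein binding microarray using a previously described protocol. Two universal double-stranded 60-mer arrays (ME and HK) were used, each with a constant 25-mer primer region and a variable 35-mer region covering all 8-mers. The rank-based 8-mer E-score (-0.5 to 0.5) is the mean of the two arrays, parsed with a custom Python script.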
row,Sequence,PBM 8-mer E-score
1,AATACAGA,0.153
2,CGTACATA,0.192
3,CTCCCTTC,-0.243
4,CTCTTGAC,-0.19
5,GTTTTGTA,0.194
6,GACGCGAC,-0.154
7,AGCAAGAT,-0.0566
8,AACGGGTC,-0.234
9,AACAAGAA,0.188
10,AGTGGATG,-0.196
11,ACAGACCC,-0.136
12,TACCTGAA,0.0511
13,AACATTCG,0.0984
14,AATTACCG,0.197
15,GTTCAGAA,0.00771
16,AAAGCCCG,-0.248
17,CGGTGCCA,-0.237
18,AACTATCA,0.274
19,CTGCGCGC,-0.273
20,GTATTACA,0.224
21,AGATGGCA,-0.156
22,ACCTGAGC,-0.27
23,ACTCAGAT,0.101
24,ACGATTAA,0.19
25,TCCGCGCA,-0.154

row,Sequence,PBM 8-mer E-score
1,AAAGGTGG,0.000476
2,ACGGCCTA,-0.163
3,CCAGGGAC,-0.226
4,ATGTCTTC,0.0651
5,ACCCAAAC,0.192
6,ATCCCCAC,-0.248
7,CTAGTGAA,-0.132
8,ATTCTTTG,0.116
9,ATTAAGGA,0.183
10,AGCTGCGA,-0.0661
11,GCCATTCA,0.0412
12,GCTGATGA,-0.137
13,ACCTTCGC,-0.239
14,CAGCGGAG,-0.203
15,GACCGGAC,-0.168
16,CTCTAATC,0.117
17,CACGAGTC,-0.188
18,CAAACGAG,-0.112
19,ATATTGAA,0.331
20,AATCATAG,0.11
21,CAACAGCA,-0.0323
22,GTTCGTGA,-0.073
23,AAGAGGCC,-0.121
24,AGCGCCCT,-0.282
25,GGTAGACC,-0.263

row,Sequence,PBM 8-mer E-score
1,GTGACCGA,-0.0854
2,GACCGACC,-0.215
3,CAAAGTGG,-0.168
4,AGTACGTA,0.0272
5,ACGAAGCG,-0.226
6,CACCACTG,-0.187
7,ATCGACGA,-0.042
8,CCGACTAC,-0.231
9,CAGGTCCA,-0.224
10,CTTGCGCC,-0.238
11,CACTAGCA,-0.205
12,AGATACGA,-0.0933
13,ATGGGCTG,-0.231
14,GTAACGAC,0.0549
15,CATTCTTC,0.104
16,TACCAAAA,0.207
17,CAGCCCAA,-0.201
18,CCCACTGC,-0.243
19,GGCCACGA,-0.266
20,TAGCTCCA,-0.00477
21,AGTGGCGG,-0.0347
22,CGAACCGA,-0.153
23,TCGTGCCA,-0.178
24,TCGGCCAA,-0.19
25,CGAATGGC,-0.241

row,Sequence,PBM 8-mer E-score
1,CAGGGACG,-0.279
2,CCACTTTC,-0.0573
3,ACAGGCCC,-0.155
4,AACTAAAT,0.351
5,AATCACCA,0.0931
6,CCTCTTCA,-0.223
7,ATAAGTAA,0.371
8,GTGAGCCA,-0.186
9,ATAAATAA,0.442
10,CAATGGAA,-0.0495
11,AACTTGCA,0.263
12,GCCCCTGA,-0.355
13,ACGGTTTG,-0.104
14,CGGGATCC,-0.211
15,CCGTGAAA,-0.0413
16,CTTTACTA,0.0718
17,ACATCATA,0.146
18,CCATCCCC,-0.185
19,CACATGCG,-0.283
20,AATTAGCC,0.191
21,AGATTATG,0.189
22,AGCGTGGG,-0.186
23,CCGGTCCC,-0.0879
24,ATTACGAG,0.228
25,CTCTTAGA,0.0454

row,Sequence,PBM 8-mer E-score
1,TCGTCACA,-0.0375
2,AGAAAAAC,0.114
3,AGCTCGCA,-0.132
4,GACCACTC,-0.163
5,TACGATAA,0.218
6,CAAATTTC,0.115
7,AACTCGCT,-0.0666
8,ACATACCG,0.0229
9,AGCATCAT,0.0041
10,GCCTGATA,0.0065
11,AAAGGAAG,-0.0816
12,CTCGCGAA,-0.087
13,CTAGGCAC,-0.257
14,GTACCTCA,-0.187
15,GACACGCC,-0.119
16,AGCTGGTA,-0.107
17,CTCAGTCA,-0.237
18,GGAAATTA,0.285
19,CTGACTGC,-0.193
20,GTGGAGGA,-0.305
21,ACTAAGGA,0.0541
22,TACTCAGA,0.0532
23,ATTAGAGC,0.166
24,ACATCGAT,0.231
25,CCGTCAAA,-0.171

row,Sequence,PBM 8-mer E-score
1,GATTTGAA,0.2
2,TCGCCCGA,-0.0549
3,CGGATAGC,-0.222
4,GAGCCAGA,-0.133
5,GAGAGCCC,-0.185
6,ACAGTCTG,-0.12
7,CGCGACCG,-0.19
8,GAGAGCGC,-0.235
9,AAGCTTTC,0.0444
10,CAAGCCGG,-0.23
11,TCGACTCA,-0.0474
12,ACGCCTAT,-0.173
13,AAGTTTCT,0.21
14,ATCCGTCA,-0.133
15,TCAGCAAA,0.0956
16,ATTTCCTA,0.0193
17,ACGGGCGG,-0.187
18,AAAAGTAC,0.105
19,GGTTAGTA,-0.14
20,ATATACAG,0.379
21,ATGTTACA,0.334
22,CCAGATTA,0.0657
23,ACTAGTTC,0.167
24,ACCCCTTG,-0.192
25,GCGAACGC,-0.147

row,Sequence,PBM 8-mer E-score
1,CAGCTTGC,-0.315
2,CACTGTTC,0.00494
3,TAAGTTCA,0.353
4,CTAGCAGC,-0.286
5,ATCTGCAG,0.0275
6,GCAGCTAA,0.0363
7,GAAATTAC,0.247
8,CGCAGTAA,-0.0812
9,GCATCGTA,-0.06
10,AGTTCGGG,-0.0593
11,GCAGTCTA,-0.147
12,GTTTTGGA,0.146
13,CTCGACAA,-0.0376
14,CAATATGG,0.156
15,AACCTACG,-0.168
16,ATCGATAA,0.259
17,ACCCGTGG,-0.197
18,CGGGCAAA,0.0147
19,AGGCTTTA,0.0572
20,CAGAGCCA,-0.205
21,ATCCTTAC,0.0415
22,ATAGATGA,0.0531
23,ACACGGAA,0.0124
24,GGTTTCCA,-0.135
25,CGTTAGCA,-0.0988

row,Sequence,PBM 8-mer E-score
1,AGCATCGG,-0.165
2,AGTTAGTA,0.322
3,ACTGCTAC,-0.102
4,AGCCGGCT,-0.27
5,AGGATCTG,-0.298
6,CTTAGCCC,-0.146
7,GACGAAAA,0.116
8,CTTAGCAC,-0.246
9,GCTATAAA,0.217
10,GTTGTTAA,0.257
11,GCTAAGAA,0.099
12,ACCATACA,0.0797
13,CGTAAGAG,-0.0608
14,CGTTCGTA,-0.165
15,ACGTACCG,-0.183
16,GAATGATC,-0.135
17,AGGTACCT,-0.172
18,CCTGAATC,-0.0962
19,TATGGAGA,0.004
20,CACTACTA,0.226
21,ATTCGCAA,0.133
22,AAAGGCAA,0.0705
23,CACCCATG,-0.206
24,GTATCCCA,0.0146
25,GGGGTCTA,-0.333

row,Sequence,PBM 8-mer E-score
1,GACCTTGC,-0.173
2,GCATAGCA,-0.106
3,AAGTTTAT,0.358
4,AGGTGCAC,-0.0462
5,AATATAGA,0.365
6,AAACTCCT,0.0562
7,ACAGAAAA,0.0557
8,AGATCATA,0.177
9,CCGCAAGA,-0.078
10,CCTCATCA,-0.156
11,TCGATTCA,0.0417
12,CCCACGCC,-0.22
13,ATACGAAT,0.127
14,GTTACAGA,0.153
15,ATCTCTCG,-0.0594
16,GCAGTTAC,0.171
17,CATTATAG,0.277
18,GACGCCTC,-0.249
19,GGGAATTA,0.129
